Test results reported in the supplement of paper PMC10441789.
The list shows a part of the results. Antibody binding of pooled human sera (four to six donors per pool; dilution not stated) to peptides of the Trypanosoma cruzi antigen TSSA on microarrays. Quantile-normalised fluorescence in arbitrary units, mean of duplicate arrays; higher = more binding. No active / inactive call. The uninfected pools are read here as the healthy donors of the same country. The strongest signals lie near the top of the scale (about 60,000).

These sequences were tested on pooled sera of chronic Chagas disease patients, USA (assay: antibody binding signal (normalised fluorescence) (arbitrary fluorescence units); higher = stronger serum antibody binding to peptide).
Description: (§1)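 Microarray of 15-residue peptides over residues 30-55 of Trypanosoma cruzi TSSAII, each with 1 to 10 substitutions at naturally variable positions, probed with one serum pool per country.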

| Sequence | antibody binding signal |
| --- | --- |
| KKTAAGETPSQPGAS | 1130 |
| GTEKKAAAGETPSQS | 2980 |
| KENKTATGETPSPPG | 7070 |
| EKKTATGGTPSQSGA | 1760 |
| TDNKTATGGAPSPSG | 559 |
| PSGTENKTAAGGAPS | 10500 |
| GKDKKTAAGEAPSQS | 3010 |
| TPPSGTEKKTAAGEA | 1860 |
| TISTPPSGKENKTAA | 3110 |
| SSTPPSGKEKKPAAG | 472 |
| TENKAAAGGTPSPSG | 1120 |
| TENKAAAGETPSPSG | 3120 |
| KENKPATGGAPSQPG | 3630 |
| KENKPAAGETPSQSG | 3650 |
| SSTPPSGKEKKTATG | 802 |
| GTDKKTATGGTPSPS | 1740 |
| PSGTEKKPATGGTPS | 6710 |
| TEKKAATGETPSQPG | 11700 |
| TENKPAAGEAPSPSG | 16200 |
| EKKAATGEAPSQPGA | 26100 |

| Sequence | antibody binding signal |
| --- | --- |
| GTENKAATGETPSQP | 13900 |
| GTEKKPATGEAPSPP | 37300 |
| PPSGTEKKTAAGEAP | 4850 |
| GTENKPATGETPSPP | 27800 |
| SSTPPSGKEKKAAAG | 575 |
| GKENKTATGGAPSQP | 13100 |
| EKKTAAGGAPSQSGA | 786 |
| KPATGGTPSQSGASS | 187 |
| GKDNKAAAGEAPSPS | 10800 |
| TSSTPPSGKEKKPAA | 367 |
| TSSTPPSGKDKKAAA | 785 |
| NKAATGETPSQPGAS | 11300 |
| SGKDNKPAAGEAPSQ | 16700 |
| TDKKPAAGETPSPSG | 2530 |
| PSGTENKAATGGAPS | 10900 |
| EKKPATGGTPSPPGA | 447 |
| DNKPATGETPSPSGA | 30100 |
| SGKDNKPAAGGTPSP | 1120 |
| KKPATGETPSPSGAS | 17300 |

Each sequence was assayed on pooled sera of uninfected people, Argentina in the same assay as above.
Description: as §1

| Sequence | antibody binding signal |
| --- | --- |
| KKTAAGETPSQPGAS | 228 |
| GTEKKAAAGETPSQS | 113 |
| KENKTATGETPSPPG | 156 |
| EKKTATGGTPSQSGA | 387 |
| TDNKTATGGAPSPSG | 267 |
| PSGTENKTAAGGAPS | 1410 |
| GKDKKTAAGEAPSQS | 168 |
| TPPSGTEKKTAAGEA | 691 |
| TISTPPSGKENKTAA | 4080 |
| SSTPPSGKEKKPAAG | 676 |
| TENKAAAGGTPSPSG | 89.9 |
| TENKAAAGETPSPSG | 167 |
| KENKPATGGAPSQPG | 350 |
| KENKPAAGETPSQSG | 191 |
| SSTPPSGKEKKTATG | 302 |
| GTDKKTATGGTPSPS | 265 |
| PSGTEKKPATGGTPS | 810 |
| TEKKAATGETPSQPG | 384 |
| TENKPAAGEAPSPSG | 218 |
| EKKAATGEAPSQPGA | 718 |

| Sequence | antibody binding signal |
| --- | --- |
| GTENKAATGETPSQP | 119 |
| GTEKKPATGEAPSPP | 863 |
| PPSGTEKKTAAGEAP | 901 |
| GTENKPATGETPSPP | 413 |
| SSTPPSGKEKKAAAG | 356 |
| GKENKTATGGAPSQP | 423 |
| EKKTAAGGAPSQSGA | 170 |
| KPATGGTPSQSGASS | 313 |
| GKDNKAAAGEAPSPS | 236 |
| TSSTPPSGKEKKPAA | 742 |
| TSSTPPSGKDKKAAA | 316 |
| NKAATGETPSQPGAS | 578 |
| SGKDNKPAAGEAPSQ | 461 |
| TDKKPAAGETPSPSG | 100 |
| PSGTENKAATGGAPS | 1450 |
| EKKPATGGTPSPPGA | 292 |
| DNKPATGETPSPSGA | 228 |
| SGKDNKPAAGGTPSP | 536 |
| KKPATGETPSPSGAS | 333 |
